The results in this text go back to US9701709B2 (REATA PHARMACEUTICALS, INC., priority 2012, dated 2017).

In assay [1] the test system is bleomycin-induced pulmonary fibrosis. The assay is described as follows: Bleomycin-induced pulmonary fibrosis in mice. Type of assay: in vivo, mouse. The note with it: QD×39, C57BL/6 mice.
For assay [2], the target named is hERG channels expressed in HEK293 cells (Homo sapiens, UniProt Q12809). The assay is described as follows: cell-based.
Chain of hERG channels expressed in HEK293 cells (Q12809 whole entry): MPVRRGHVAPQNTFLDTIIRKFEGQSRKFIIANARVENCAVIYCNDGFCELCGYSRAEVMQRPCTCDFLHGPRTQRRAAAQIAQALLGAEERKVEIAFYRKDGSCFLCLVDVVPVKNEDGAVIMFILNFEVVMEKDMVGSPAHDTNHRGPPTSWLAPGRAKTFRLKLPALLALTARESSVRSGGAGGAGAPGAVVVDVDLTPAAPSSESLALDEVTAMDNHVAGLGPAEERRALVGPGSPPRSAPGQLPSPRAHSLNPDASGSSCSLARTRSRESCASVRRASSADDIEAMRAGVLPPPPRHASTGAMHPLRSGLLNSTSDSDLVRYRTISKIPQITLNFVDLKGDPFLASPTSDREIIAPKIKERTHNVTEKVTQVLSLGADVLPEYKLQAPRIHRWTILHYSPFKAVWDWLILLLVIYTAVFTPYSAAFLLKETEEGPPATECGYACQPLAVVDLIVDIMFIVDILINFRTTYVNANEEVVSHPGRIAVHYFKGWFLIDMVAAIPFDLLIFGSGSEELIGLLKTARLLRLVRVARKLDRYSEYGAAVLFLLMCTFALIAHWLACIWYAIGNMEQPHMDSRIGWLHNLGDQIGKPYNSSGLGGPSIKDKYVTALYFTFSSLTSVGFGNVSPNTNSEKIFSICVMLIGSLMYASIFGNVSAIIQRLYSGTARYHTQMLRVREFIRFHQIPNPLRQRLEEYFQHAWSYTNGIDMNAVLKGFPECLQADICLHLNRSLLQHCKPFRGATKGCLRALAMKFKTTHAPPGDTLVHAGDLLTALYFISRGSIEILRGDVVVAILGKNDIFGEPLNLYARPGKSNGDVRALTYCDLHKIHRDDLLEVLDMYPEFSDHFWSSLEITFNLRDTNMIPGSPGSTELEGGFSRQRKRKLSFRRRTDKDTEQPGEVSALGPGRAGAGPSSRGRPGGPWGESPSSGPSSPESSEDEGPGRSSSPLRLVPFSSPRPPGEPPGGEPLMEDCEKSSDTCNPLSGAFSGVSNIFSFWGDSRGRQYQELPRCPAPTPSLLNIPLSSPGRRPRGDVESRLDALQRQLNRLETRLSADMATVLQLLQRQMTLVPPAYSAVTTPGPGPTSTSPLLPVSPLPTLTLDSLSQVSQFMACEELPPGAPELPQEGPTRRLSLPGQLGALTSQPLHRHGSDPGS

One may read the IC50 as the concentration that gives 50% inhibition. Consider `CC1(C)CC[C@]2(NC(=O)C(C)(F)F)CC[C@]3(C)[C@H](C(=O)C=C4[C@@]5(C)C=C(C#N)C(=O)C(C)(C)[C@@H]5CC[C@]43C)[C@@H]2C1` [RTA 408, N-((4aS,6aR,6bS,8aR,12aS,14aR,14bS)-11-cyano-2,2,6a,6b,9,9,12a-heptamethyl-10,14-dioxo-1,2,3,4,4a,5,6,6a,6b,7,8,8a,9,10,12a,14,14a,14b-octadecahydropicen-4a-yl)-2,2-difluoropropanamide], for which the BALF inflammatory infiltrate entry in assay [1] is given as “A notable reduction in inflammatory infiltrate was observed”. Moreover, the IC50 in assay [2] turned out to be 12.4 µM. The molecule `CC(=O)N[C@]12CCC(C)(C)C[C@H]1[C@H]1C(=O)C=C3[C@@]4(C)C=C(C#N)C(=O)C(C)(C)[C@@H]4CC[C@@]3(C)[C@]1(C)CC2` [Compound 63170] had an IC50 in assay [2] of 4.9 µM. In assay [2], `CCC(=O)N[C@]12CCC(C)(C)C[C@H]1[C@H]1C(=O)C=C3[C@@]4(C)C=C(C#N)C(=O)C(C)(C)[C@@H]4CC[C@@]3(C)[C@]1(C)CC2` [Compound 63189] gave a 50% inhibitory concentration (IC50) of 3.8 µM. Still for that read-out and setting: in the case of `CC1(C)CC[C@]2(NC(=O)C(F)(F)F)CC[C@]3(C)[C@H](C(=O)C=C4[C@@]5(C)C=C(C#N)C(=O)C(C)(C)[C@@H]5CC[C@]43C)[C@@H]2C1` [Compound 63171] it was 15.7 µM.
